PubChem BioAssay AID1346428 (National Center for Advancing Translational Sciences (NCATS), 2018)
Where “and” joins values, the source holds several entries; their conditions need not be identical. Equal entries are not always repeated. About 1,200 (2.5%) of roughly 48,000 compounds were called active. About 2% were inconclusive and are not listed.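 The calls were made as follows: active = activation of at least 60% and not above a set upper limit (about 1 call in 100 departs from these limits); inconclusive = activation of 40% to 60%, or above that upper limit; inactive = activation under 40%.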 The list shows a part of the results.

Each compound was assayed against Probable G-protein coupled receptor 32 (Homo sapiens) (UniProt O75388) (assay: qHTS for Agonists of Human Resolvin D1 Receptor DRV1). Settings: CHO-K1 GPR32 beta-arrestin PathHunter luminescence, 90 min; at 76.9 µM; stronger effect = higher value; zero percent set by DMSO-only wells.
UniProt O75388, sequence (O75388 whole entry, looked up): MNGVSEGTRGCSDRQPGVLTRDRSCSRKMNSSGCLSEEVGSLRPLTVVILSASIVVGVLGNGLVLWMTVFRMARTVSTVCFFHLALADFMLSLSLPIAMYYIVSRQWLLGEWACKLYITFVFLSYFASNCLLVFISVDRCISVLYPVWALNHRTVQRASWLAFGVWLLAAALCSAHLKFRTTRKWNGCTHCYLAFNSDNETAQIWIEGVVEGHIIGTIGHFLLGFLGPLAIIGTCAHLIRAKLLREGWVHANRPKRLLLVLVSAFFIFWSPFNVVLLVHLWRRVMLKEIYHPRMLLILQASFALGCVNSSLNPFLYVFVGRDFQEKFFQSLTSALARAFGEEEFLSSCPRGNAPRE
In short: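 PathHunter beta-arrestin recruitment in CHO-K1 cells stably expressing ProLink-tagged GPR32. Cells were exposed to compound for 90 min at 37 C, then chemiluminescence was read after 1 h detection at ambient temperature; DMSO served as basal control.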
Also: 0% is about no effect.

Structure (SMILES) | activation
COc1ccc(OC(=O)c2nc(SCc3ccccc3C)ncc2Cl)cc1 | inactive: 31.8%
Cc1cc(C)c2c(CC(=O)Nc3cc(C(F)(F)F)ccc3Cl)coc2c1 | inactive: -2.79%
Cc1ccc(CCNC(=O)CCCc2nnc3n(C)c(=O)c4sccc4n23)cc1 | inactive: 15.6%
COc1cccc(CSc2nc3n(n2)C(CC(C)C)C(C(=O)Nc2ccccc2C)=C(C)N3)c1 (stereo unspecified) | inactive: -5.47%
COc1ccc(C(=O)Nc2cccc(C(=O)OCc3cc(=O)n4c5c(sc4n3)CCCC5)c2)cc1 | inactive: -9.68%
COc1ccccc1-n1c(=O)n(C)c2c(C(N)=O)nc(-c3cccc(OC)c3OC)nc21 | inactive: -21.9%
Cc1ccc(-n2ncc(C(=O)NCc3ccco3)c2C2CCN(C(=O)OC(C)(C)C)CC2)cc1 | inactive: -18.3%
CNC(=O)C1CCC(Cn2c(=O)c3sccc3n(CC(=O)N3CCC(C)CC3)c2=O)CC1 (stereo unspecified) | inactive: -5.11%
CN(C(=O)c1c(O)c2ccccc2n(C)c1=O)c1ccccc1 | inactive: 23.2%
Cc1cc(C)c(Cn2c(=O)n(CCCC(=O)NCc3ccc4c(c3)OCO4)c(=O)c3sccc32)c(C)c1 | inactive: -20.8%
OCc1ccccn1 | inactive: -4.52%
COC(=O)c1cc(S(=O)(=O)NCC2CCN(Cc3cccc(F)c3)CC2)cn1C | inactive: -11.7%
Cn1c(=O)c2c(-c3ccc(Cl)cc3)n(CCc3ccccc3)cc2n(C)c1=O | inactive: -6.57%
Cc1ccc2nc(Cl)c3cc(C(=O)N4CCCCC4)sc3c2c1 | inactive: -7.37%
COc1ccc(N2CCN(Cc3nc4c(c(=O)[nH]c(=O)n4C)n3Cc3ccccc3F)CC2)cc1 | inactive: -14.8%
COc1ccc(CCNC(=O)c2cc(=O)c3cc(C)c(C)cc3o2)cc1OC | inactive: 24.8%
Cn1nnc2c(NCc3c(F)cccc3F)ncnc21 | inactive: 0.0021%
COc1ccc(N(C(=O)Cn2nnc3ccccc32)C(C(=O)NCc2ccccc2)c2ccc(F)cc2)cc1 (stereo unspecified) | inactive: -23.2%
Cn1c(=O)c2c(nc(SCC(=O)Nc3ccc(F)c(F)c3)n2Cc2ccccc2F)n(C)c1=O | inactive: -0.387%
CCc1ccc(C(=O)CC2(O)C(=O)N(CCc3ccccc3)c3ccc(Cl)cc32)cc1 (stereo unspecified) | inactive: -14.4%
COc1ccc(CCNC(=O)C(=O)NCC(c2cccs2)S(=O)(=O)c2ccc(F)cc2)cc1 (stereo unspecified) | active: 85.1%
O=C(NCCc1ccc(Cl)cc1)C1CCN(S(=O)(=O)c2ccc3[nH]ccc3c2)CC1 | inactive: 17.5%

Structure (SMILES) | activation
O=C(COCc1cc(-c2ccc3c(c2)OCO3)on1)Nc1cc(Cl)ccc1O | inactive: 15.6%
COc1ccc(-c2noc(CNC(=O)COc3cccc(C)c3C)n2)cc1 | inactive: -12.4%
CC(C)c1ccc(Nc2c(-c3ccccn3)nc3ccccn23)cc1 | inactive: -84.4%
CCOC(=O)c1c(C)oc2nc(C)nc(NCCCN3CCN(c4cc(C)ccc4C)CC3)c12 | inactive: -2.82%
COc1ccc(-c2nc(CSCC(=O)NCc3ccccc3Cl)c(C)o2)cc1OC | inactive: -23.7%
O=C(c1ccccc1)N1CCc2cc(CNS(=O)(=O)c3ccc(Cl)s3)ccc21 | inactive: 20.3%
CCc1ccc(C(=O)C(C)CN2CCCCC2)cc1 (stereo unspecified) | inactive: -4.78%
O=C(CCSCc1cccc(Cl)c1)NCCc1ccc(Cl)cc1 | inactive: -11.5%
COc1ccc(-n2c(SCC(=O)NCc3ccc(F)cc3)nc3c([nH]c4ccccc43)c2=O)cc1 | inactive: -15.2%
Cc1oc(-c2ccc(Cl)cc2)nc1Cn1c(=O)cc(C)c2c(C)nn(-c3ccccc3)c21 | inactive: -7.9%
Cc1nn2cc(-c3ccc(OC(C)C)cc3)nc2s1 | inactive: -11.8%
Cn1c(=O)n(C)c2cc(N3CCOCC3)c(NS(=O)(=O)c3cccc(C#N)c3)cc21 | inactive: -15.5%
COc1ccccc1CNC(=O)CCCCn1c(=O)c2ccccc2n(Cc2ccccc2F)c1=O | inactive: 13.2%
CC(=O)Nc1cccc(NC(=O)Cn2cnc3c(oc4ccccc43)c2=O)c1 | inactive: -3.85%
CCOc1ccc(NC(=O)c2c(C)oc3nc(C)nc(N4CCOCC4)c23)cc1 | inactive: -14.3%
Cc1ccc(CNC(=O)CSc2nc3ccccc3nc2Cc2ccc(C)cc2)cc1 | inactive: 21%
Cc1ccc(-c2nc3c4c(-c5ccccc5)c(-c5ccccc5)oc4ncn3n2)cc1 | inactive: 9%
Cc1ccc(CCNC(=O)C2CCN(S(=O)(=O)c3ccc4c(ccn4C)c3)CC2)cc1 | inactive: 5.49%
Cc1cccc(-c2nc3c(cnn3-c3ccccc3)c(=O)n2-c2ccc(Cl)cc2)c1 | inactive: -8.74%
COc1ccc(S(=O)(=O)NCC(c2ccco2)S(=O)(=O)c2cccs2)cc1F (stereo unspecified) | inactive: -21.2%
COc1ccc(NC(=O)CSc2nc(C)cc(C)c2C(=O)Nc2ccccc2OC)cc1 | inactive: -19.9%
O=C(C1CCCN(S(=O)(=O)c2cccc3nsnc23)C1)N1CCN(c2cccc(Cl)c2)CC1 (stereo unspecified) | inactive: 48.6%

Structure (SMILES) | activation
CCN(CC)c1nn2c(=O)c(C(=O)NCCc3cccc(C)c3)cnc2s1 | inactive: -5.29%
Cc1ccc2nc(-c3ccccn3)c(Nc3ccccc3C)n2c1 | inactive: -107%
CCCN1CCc2nc(N3CCN(C)CC3)ncc2C1 | inactive: -0.0535%
COc1ccc(-c2noc(CSc3nc4ccccc4[nH]3)n2)cc1OC | active: 67%
CCc1cccc(C)c1NS(=O)(=O)c1ccc2c(c1)CC(C)N2C(=O)C1CC1 (stereo unspecified) | inactive: 2.62%
Cc1cccc(Cn2c(=O)n(-c3ccccc3C)c(=O)c3c2c2cc(C)ccc2n3C)c1 | inactive: 17.7%
Fc1cccc(CSc2ccc(-c3cccs3)nn2)c1 | inactive: -11.5%
COc1ccc(S(=O)(=O)NCCc2csc3nc(-c4ccccc4)nn23)cc1OC | inactive: 1.2%
Cc1ccc2oc3c(c(=O)c2c1)C(c1ccc(O)cc1)N(c1nc(C)c(C)s1)C3=O (stereo unspecified) | inactive: -3.84%
[Cl][In]([Cl])[Cl] | inactive: 33%
CCC(=O)N1c2ccccc2CC1C(=O)NCc1cc(Br)ccc1OC (stereo unspecified) | inactive: 3.94%
COc1ccccc1C(=O)N(c1ccc(C)cc1)S(=O)(=O)c1ccc(Cl)cc1 | inactive: -5.43%
Cc1csc2nc(COC(=O)c3ccc(NC(=O)C(C)Oc4ccccc4)cc3)cc(=O)n12 (stereo unspecified) | inactive: -11.5%
Cc1ccc(CNc2nc3ccccc3n3cnnc23)cc1 | inactive: -7.12%
CCC(=O)Nc1nnc(S(=O)(=O)N2c3ccccc3CC2C)s1 (stereo unspecified) | inactive: -0.767%
CC(C)Cc1ccc(C(C)C(=O)O)cc1 (stereo unspecified) | inactive: 23.6% and inactive: -2.15%
CCCC1=Nc2cc(C(=O)N3CCC(C(=O)OCC)CC3)ccc2Sc2ccccc21 | inactive: 3.57%
COc1ccc(NC(=O)c2cnc(N3CCCC3)nc2)cc1OC | inactive: -1.38%
COc1ccc(CN2CCN(C(c3ccc(F)cc3)c3ccc(F)cc3)CC2)c(OC)c1OC | active: 78.3%
O=C(NCc1cccc(F)c1)c1ccccc1NC(=O)c1nsc2ccccc12 | inactive: -13.4%
Cc1cc(C)c2oc(-c3cccc(NC(=O)c4ccc(-c5cccc([N+](=O)[O-])c5)o4)c3)nc2c1 | inactive: 4.49%
Cc1cccc(NC(=O)C2CCCN2S(=O)(=O)c2ccc3c(c2)n(C)c(=O)c(=O)n3C)c1 (stereo unspecified) | inactive: -9.25%

Structure (SMILES) | activation
CC(=O)c1cccc(NC(=O)C2=CC(c3ccc4c(c3)OCO4)=NS(=O)(=O)N2C)c1 | inactive: -16.7%
Cc1ccc(CNC(=O)c2ccc(CSCc3ccccc3Cl)o2)cc1 | inactive: -24.1%
COc1ccccc1CNC(=O)CCC1N=C2c3ccccc3N=C(SCC(N)=O)N2C1=O (stereo unspecified) | inactive: -21.9%
CC1CCCCN1CCCNC(=O)c1[nH]c2ccccc2c1Sc1ccc(Cl)cc1 (stereo unspecified) | inactive: -21.9%
Fc1ccccc1-n1ncc2c1ncn1nc(-c3ccccc3Cl)nc21 | inactive: -9.15%
Cc1cccc(CNC(=O)C(=O)Nc2ccccc2C)c1 | inactive: -2.68%
CC(=O)N1CCc2cc(CNC(=O)Nc3cc(Cl)ccc3C)ccc21 | inactive: 1.81%
COc1ccc(Cn2c(CCC(=O)Nc3cccc(OC)c3)nc3cccnc32)cc1 | inactive: -10.9%
CCc1ccc(CNC(=O)C2CCN(c3nc4ccccc4nc3C(F)(F)F)CC2)cc1 | inactive: -3.92%
Cc1cccc(C)c1NC(=O)CSc1nc2ncccc2o1 | inactive: 2.07%
Cc1ccc(S(=O)(=O)NCC(c2ccc(N(C)C)cc2)N2CCc3ccccc32)cc1C (stereo unspecified) | inactive: -26.7%
CCN1C(=O)c2ccccc2Sc2ccc(NC(=O)Nc3ccccc3OC)cc21 | inactive: -4.17%
Cc1ccc(NC(=O)c2c(NC(=O)Cc3ccccc3)sc3c2CCC3)cc1 | inactive: 2.88%
COC(=O)Cc1c(C)c2cc3c(c(C)c2oc1=O)OCN(CCc1ccccc1F)C3 | inactive: 2.39%
COc1ccc(NC(=O)Cn2c(=O)n(Cc3ccco3)c(=O)c3cc(OC)c(OC)cc32)cc1 | inactive: -8.28%
CN(C)c1ccc(-c2nc3cnccn3c2Nc2cccc(C(F)(F)F)c2)cc1 | inactive: -4.85%
COc1cccc(CNc2nccn(-c3cc(C)cc(C)c3)c2=O)c1 | active: 63.1%
COc1ccc2cc(-c3nc(Cl)c4c5c(sc4n3)CCCC5)c(=O)oc2c1 | inactive: 10.2%
Cc1ccc(-n2ncc(C(=O)NCCN3CCOCC3)c2C2CCN(C(=O)OC(C)(C)C)CC2)c(C)c1 | inactive: -6.86%
Cc1cc2c(cc1S(=O)(=O)CCC(=O)N1CCCC(C)C1)OCC(=O)N2 (stereo unspecified) | inactive: -3.58%
